# Measurements published in the supplement of paper PMC10320760.
# The data scatter; read single values as rough.
# B1: Ydj1; a variant is named by its letters at X, in order (parent)
# chain: MVKETKFYDILGVPVTATDVEIKKAYRKCALKYHPDKNPSEEAAEKFKEASAAYEILSDPEKRDIYDQFGEDGLSGAGGAGGFPGGGFGFGDDIFSQFFGAGGAQRPRGPQRGKDIKHEISASLEELYKGRTAKLALNKQILCKECEGRGGKKGAVKKCTSCNGQGIKFVTRQMGPMIQRFQTECDVCHGTGDIIDPKDRCKSCNGKKVENERKILEVHVEPGMKDGQRIVFKGEADQAPDVIPGDVVFIVSERPHKSFKRDGDDLVYEAEIDLLTAIAGGEFALEHVSGDWLKVGIVPGEVIAPGMRKVIEGKGMPIPKYGGYGNLIIKFTIKFPENHFTSEENLKKLEEILPPRIVPAIPKKATVDECVLADFDPAKYNRTRASRGGANYDSDEEEQGGEGVQCXXX
# Variants of: B1
# Assay: enrichment factor, frequency at 37 °C / frequency at 25 °C (thermotolerance selection) (ratio); higher = more growth at 37 °C, higher likelihood of farnesylation
# Conditions: with Saccharomyces cerevisiae ydj1Δ (yWS304); selective temperature 37 °C; reference temperature 25 °C
row,Variant,enrichment factor
1,VNG,1.24
2,WNG,1.16
3,YNG,1.45
4,DNH,0.188
5,ENH,1.07
6,FNH,1.22
7,GNH,0.395
8,ANH,1.63
9,HNH,1.62
10,INH,1.52
11,KNH,1.59
12,LNH,1.86
13,MNH,1.53
14,NNH,1.81
15,PNH,1.78
16,QNH,1.87
17,RNH,1.46
18,SNH,1.99
19,CNH,1.47
20,TNH,1.58
21,VNH,2.05
22,WNH,1.97
23,YNH,1.87
24,DNI,0.118

row,Variant,enrichment factor
1,ENI,0.819
2,FNI,1.05
3,GNI,0.183
4,ANI,1.38
5,HNI,0.851
6,INI,1.35
7,KNI,0.728
8,LNI,1.34
9,MNI,0.59
10,NNI,0.496
11,PNI,1.08
12,QNI,1.44
13,RNI,1.15
14,SNI,0.769
15,CNI,0.158
16,TNI,1.43
17,VNI,1.78
18,WNI,2.09
19,YNI,0.731
20,DNK,0.182
21,ENK,0.201
22,FNK,0.117
23,GNK,0.11
24,ANK,0.243

row,Variant,enrichment factor
1,HNK,0.191
2,INK,0.13
3,KNK,0.355
4,LNK,0.222
5,MNK,0.185
6,NNK,0.242
7,PNK,0.133
8,QNK,0.252
9,RNK,0.0802
10,SNK,0.221
11,CNK,0.114
12,TNK,0.119
13,VNK,0.154
14,WNK,0.399
15,YNK,0.108
16,DNL,0.145
17,ENL,0.39
18,FNL,1.3
19,GNL,0.146
20,ANL,1.45
21,HNL,0.504
22,INL,1.48
23,KNL,0.331
24,LNL,1.02

row,Variant,enrichment factor
1,MNL,0.608
2,NNL,0.359
3,PNL,0.62
4,QNL,0.617
5,RNL,0.573
6,SNL,0.476
7,CNL,0.182
8,TNL,0.966
9,VNL,1.83
10,WNL,1.25
11,YNL,0.955
12,DNM,1.37
13,ENM,1.79
14,FNM,1.91
15,GNM,2.05
16,ANM,1.26
17,HNM,1.38
18,INM,1.5
19,KNM,1.36
20,LNM,1.11
21,MNM,1.17
22,NNM,1.47
23,PNM,1.54
24,QNM,1.88

row,Variant,enrichment factor
1,RNM,1.25
2,SNM,1.44
3,CNM,0.869
4,TNM,1.84
5,VNM,1.79
6,WNM,0.851
7,YNM,2.03
8,DNN,0.189
9,ENN,0.725
10,FNN,1.56
11,GNN,0.217
12,ANN,1.18
13,HNN,1.72
14,INN,0.956
15,KNN,1.75
16,LNN,1.32
17,MNN,1.19
18,NNN,0.919
19,PNN,1.77
20,QNN,2.1
21,RNN,1.35
22,SNN,1.85
23,CNN,1.22
24,TNN,1.51

row,Variant,enrichment factor
1,VNN,1.2
2,WNN,1.77
3,YNN,2.11
4,DNP,0.165
5,ENP,0.138
6,FNP,1.3
7,GNP,0.139
8,ANP,0.126
9,HNP,0.332
10,INP,0.182
11,KNP,0.164
12,LNP,0.179
13,MNP,0.205
14,NNP,0.192
15,PNP,0.155
16,QNP,0.111
17,RNP,0.144
18,SNP,0.172
19,CNP,0.576
20,TNP,0.203
21,VNP,0.102
22,WNP,1.29
23,YNP,0.29
24,DNQ,1.67

row,Variant,enrichment factor
1,ENQ,1.34
2,FNQ,1.17
3,GNQ,1.18
4,ANQ,1.61
5,HNQ,1.34
6,INQ,1.29
7,KNQ,2.05
8,LNQ,1.48
9,MNQ,1.57
10,NNQ,1.6
11,PNQ,1.49
12,QNQ,1.59
13,RNQ,1.86
14,SNQ,1.41
15,CNQ,1.05
16,TNQ,1.68
17,VNQ,1.73
18,WNQ,1.12
19,YNQ,1.95
20,DNR,0.0982
21,ENR,0.224
22,FNR,0.109
23,GNR,0.0781
24,ANR,0.116

row,Variant,enrichment factor
1,HNR,0.204
2,INR,0.0754
3,KNR,0.182
4,LNR,0.207
5,MNR,0.117
6,NNR,0.0781
7,PNR,0.188
8,QNR,0.108
9,RNR,0.13
10,SNR,0.16
11,CNR,0.233
12,TNR,0.196
13,VNR,0.196
14,WNR,0.852
15,YNR,0.103
16,DNS,0.269
17,ENS,1.23
18,FNS,1.34
19,GNS,1.81
20,ANS,1.79
21,HNS,1.74
22,INS,1.76
23,KNS,1.6
24,LNS,1.35

row,Variant,enrichment factor
1,MNS,1.23
2,NNS,1.67
3,PNS,1.64
4,QNS,1.95
5,RNS,1.42
6,SNS,1.4
7,CNS,1.55
8,TNS,1.62
9,VNS,1.2
10,WNS,1.56
11,YNS,2.25
12,DNT,0.146
13,ENT,0.883
14,FNT,1.65
15,GNT,0.36
16,ANT,1.83
17,HNT,1.65
18,INT,1.4
19,KNT,1.43
20,LNT,1.37
21,MNT,1.19
22,NNT,1.39
23,PNT,1.4
24,QNT,1.73

row,Variant,enrichment factor
1,RNT,1.37
2,SNT,1.48
3,CNT,1.71
4,TNT,2.19
5,VNT,1.44
6,WNT,1.5
7,YNT,1.55
8,DNV,0.226
9,ENV,1.21
10,FNV,1.39
11,GNV,0.56
12,ANV,1.78
13,HNV,1.92
14,INV,3.24
15,KNV,1.61
16,LNV,1.61
17,MNV,1.57
18,NNV,1.43
19,PNV,1.72
20,QNV,2.03
21,RNV,1.56
22,SNV,1.4
23,CNV,0.386
24,TNV,1.58

row,Variant,enrichment factor
1,VNV,1.99
2,WNV,1.25
3,YNV,1.75
4,DNW,0.299
5,ENW,0.394
6,FNW,1.12
7,GNW,0.225
8,ANW,1.42
9,HNW,0.389
10,INW,0.68
11,KNW,0.517
12,LNW,1.08
13,MNW,0.559
14,NNW,0.413
15,PNW,0.4
16,QNW,1.26
17,RNW,0.943
18,SNW,0.362
19,CNW,0.288
20,TNW,0.883
21,VNW,1.46
22,WNW,1.9
23,YNW,0.774
24,DNY,0.186

row,Variant,enrichment factor
1,ENY,0.942
2,FNY,0.691
3,GNY,0.146
4,ANY,1.86
5,HNY,0.503
6,INY,1.24
7,KNY,0.582
8,LNY,0.919
9,MNY,0.462
10,NNY,0.415
11,PNY,1.06
12,QNY,0.667
13,RNY,1.08
14,SNY,0.973
15,CNY,0.776
16,TNY,1.61
17,VNY,2.15
18,WNY,1.08
19,YNY,0.448
20,DPA,0.895
21,EPA,1.24
22,FPA,2.06
23,GPA,1.51
24,APA,2.08

row,Variant,enrichment factor
1,HPA,2.38
2,IPA,1.84
3,KPA,1.42
4,LPA,2.02
5,MPA,1.82
6,NPA,1.86
7,PPA,1.69
8,QPA,1.76
9,RPA,1.62
10,SPA,1.84
11,CPA,1.83
12,TPA,2.56
13,VPA,3.01
14,WPA,0.837
15,YPA,4.06
16,DPC,1.52
17,EPC,1.66
18,FPC,0.148
19,GPC,0.599
20,APC,0.888
21,HPC,1.95
22,IPC,1.05
23,KPC,0.76
24,LPC,0.22

row,Variant,enrichment factor
1,MPC,0.47
2,NPC,1.05
3,PPC,1.69
4,QPC,2.29
5,RPC,0.275
6,SPC,0.72
7,CPC,0.352
8,TPC,0.714
9,VPC,1.7
10,WPC,0.113
11,YPC,1.74
12,DPD,0.154
13,EPD,0.297
14,FPD,0.75
15,GPD,0.175
16,APD,2.67
17,HPD,1.12
18,IPD,1.66
19,KPD,2.29
20,LPD,1.3
21,MPD,0.983
22,NPD,1.15
